The whole screen tested about 310,000 compounds, of which about 14,000 (4.5%) showed an effect of 50% or more. Effects have a minus sign here. The list shows a part of the results. Where a SMILES comes first, the peptide text is derived from it. [ ]: non-standard residue; d: D form. The star is where a group is joined. Tic = O=C(O)[C@@H]1Cc2ccccc2CN1; Boc = CC(C)(C)OC(=O)*
Each compound was assayed against human ether-à-go-go-related gene (hERG) potassium channel (human, UniProt Q12809) (assay: primary screen, population patch clamp on CHO cells stably expressing hERG).
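Further: peak tail current of the secondary pulse compared with the same well before compound.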

Chain of human ether-à-go-go-related gene (hERG) potassium channel (Q12809 whole entry, looked up): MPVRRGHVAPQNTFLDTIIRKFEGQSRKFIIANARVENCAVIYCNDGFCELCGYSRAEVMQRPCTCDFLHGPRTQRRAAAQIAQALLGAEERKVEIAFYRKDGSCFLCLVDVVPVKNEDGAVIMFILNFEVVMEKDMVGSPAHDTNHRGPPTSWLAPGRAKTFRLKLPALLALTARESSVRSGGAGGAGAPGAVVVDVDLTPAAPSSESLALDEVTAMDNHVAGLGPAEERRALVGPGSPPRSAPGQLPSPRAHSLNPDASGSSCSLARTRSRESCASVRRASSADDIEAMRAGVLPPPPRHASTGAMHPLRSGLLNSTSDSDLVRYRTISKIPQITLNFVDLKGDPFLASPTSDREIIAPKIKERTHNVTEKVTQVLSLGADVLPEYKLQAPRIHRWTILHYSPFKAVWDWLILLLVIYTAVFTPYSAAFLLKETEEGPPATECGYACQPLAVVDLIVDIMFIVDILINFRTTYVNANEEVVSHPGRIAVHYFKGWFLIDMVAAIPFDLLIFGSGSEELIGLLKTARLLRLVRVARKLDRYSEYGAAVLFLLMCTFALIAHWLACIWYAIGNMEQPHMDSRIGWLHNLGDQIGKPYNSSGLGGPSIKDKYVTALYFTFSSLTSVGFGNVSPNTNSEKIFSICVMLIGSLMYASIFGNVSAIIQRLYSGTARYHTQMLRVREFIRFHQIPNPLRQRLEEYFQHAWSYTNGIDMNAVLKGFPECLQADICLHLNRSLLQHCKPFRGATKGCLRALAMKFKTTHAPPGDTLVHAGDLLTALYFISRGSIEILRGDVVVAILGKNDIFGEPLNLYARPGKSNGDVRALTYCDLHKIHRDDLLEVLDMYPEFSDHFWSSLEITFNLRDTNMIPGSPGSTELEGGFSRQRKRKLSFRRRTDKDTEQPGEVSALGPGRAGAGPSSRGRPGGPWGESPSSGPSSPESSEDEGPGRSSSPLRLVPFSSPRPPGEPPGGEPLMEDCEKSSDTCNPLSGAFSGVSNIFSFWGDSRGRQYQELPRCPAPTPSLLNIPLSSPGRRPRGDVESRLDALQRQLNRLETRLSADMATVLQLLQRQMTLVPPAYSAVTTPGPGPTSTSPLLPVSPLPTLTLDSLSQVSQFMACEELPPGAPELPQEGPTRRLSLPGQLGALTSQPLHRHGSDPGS

SMILES	hERG current change (%, negative = inhibition) at 10uM
Cc1nn(-c2ccccc2)c(NC(=O)c2cccs2)c(-c2ccccc2Cl)c1=O	3.53%
CC(C)NC(=O)COC(=O)c1cccc(NS(=O)(=O)/C=C/c2ccccc2)c1	-18%
O=C(Nc1ccccc1Cl)N(Cc1nc2ccccc2c(=O)[nH]1)Cc1cccs1	-1.42%
CC(C)(C)OC(=O)N1Cc2ccccc2C[C@H]1C(=O)N1CCC[C@H]1C(=O)O (Boc-[Tic]-Pro-OH)	22.8%
COc1ccccc1NC(=O)Cc1c(F)cccc1Cl	-1.33%
COc1ccc(C(=O)NCC(=O)N/N=C/c2cn(C)c3ccccc23)cc1OC	6.28%
Clc1ccc(Oc2nc(N3CCOCC3)nc(N3CCOCC3)n2)c(C2CCCCC2)c1	12.4%
Cc1nn(-c2ccccc2)c(C)c1C(=O)NNC(=O)C(F)(F)F	9.26%
OCCCNC(=S)NC1CCCC1	21.8%
CCOC(=O)C1(CCOc2ccccc2)CCN(CC=C(C)C)CC1	-50.2%
O=C(NCc1nnc(SCC(=O)N2CCCCC2)o1)c1c(F)cccc1Cl	9.42%
CC1=C(C(=O)OCCCBr)C(c2ccc3c(c2)OCO3)NC(=O)N1 (stereo not shown)	5.39%
Cc1ccc(C)n1-c1ccc(C(=O)NN=C2CCCC2)cc1	-12.9%
Cc1ccc(C(=O)NNC(=O)CSc2nnc(-c3ccccc3)n2Cc2ccccc2)cc1	-29.4%
Cc1cc(C)n(-c2cccc(CN(C)Cc3nc(-c4cnccn4)no3)c2)n1	10.8%
Cc1ccc(-c2cc3nc(C)cc(NCc4ccco4)n3n2)cc1	-13.9%
O=C(Cc1ccc(Cl)c(Cl)c1)Nc1ccc2[nH]c(=O)[nH]c2c1	0.185%
COc1ccc(C2OC(=O)CC2C(=O)NC2CCCCCC2)cc1OC (stereo not shown)	-4.28%
Cc1ccc(-c2csc(N3CCN(c4cc5c(cc4Cl)nc(-c4ccncc4)n5CCOCCO)CC3)n2)cc1	4.81%
COc1ccc(N2CCN(S(=O)(=O)c3c(C)nc4sccn4c3=O)CC2)cc1	-9.86%
CCOC(=O)c1cc2sc(C)cc2n1CC(=O)Nc1cccc(C)c1C	-11.8%
COc1ccccc1C(=O)Nc1nnc(-c2ccc3c(c2)CCCC3)o1	-2.63%

SMILES	hERG current change (%, negative = inhibition) at 10uM
O=C(c1ccccc1[N+](=O)[O-])N1CC2C3C=CC(C3)C2C1 (stereo not shown)	17.9%
Cc1ccc(C)c(-c2csc(-c3cccnc3)n2)c1	-1.84%
O=C(O)CCCCCN1C(=O)C2CCCCC2C1=O (stereo not shown)	12.7%
Cc1cc(OC(=O)c2ccccc2Cl)c([N+](=O)[O-])c(=O)[nH]1	6.58%
CC(C)Sc1sc(C(=O)O)c(-c2ccc(Cl)cc2)c1C#N	13.6%
O=C(c1cccc(OC2CCN(Cc3ccc(F)cc3Cl)CC2)c1)N1CCCC1	-26.4%
O=C(Oc1ccc(/C=N/n2cnnc2)cc1)c1cccc([N+](=O)[O-])c1	6.89%
O=C(Cn1cnc2c(nnn2-c2cccc(Cl)c2)c1=O)NCc1ccccc1	3.6%
O=C(CSc1ncn[nH]1)Nc1nsc(-c2ccccc2)n1	-4.5%
Cc1cc(S(=O)(=O)N2CCCOC2CNC(=O)C(=O)NCCCN2CCOCC2)ccc1F (stereo not shown)	10.3%
COc1ccc(NC(=O)C/C(C)=N/NC(=O)c2cnccn2)c(OC)c1	9.22%
CN(C)S(=O)(=O)c1ccc(NC(=O)c2cc(-c3cccs3)nc3ccccc23)cc1	8.68%
Cc1ccc(NC(=O)CCC(=O)N/N=C/c2ccco2)c(C)c1	12.9%
[O-]/[N+](=C\c1ccc(OC(F)F)cc1)c1ccccc1	-14.3%
CCOC(=O)c1ccc(NC(=O)NCc2c(C)nn(CC)c2C)cc1	10.9%
Cc1[nH]n(-c2ccccc2)c(=O)c1-c1ccc(Cl)cc1	9.3%
CCN(CC)C(=O)c1ccc(NC(=O)COc2ccc(-c3nn(C)c(=O)c4ccccc34)cc2)cc1	1.52%
O=c1c(Cl)c(NCc2ccccc2Cl)cnn1C12CC3CC(CC(C3)C1)C2	-5.06%
Cc1cc(C)n(C(=O)Cn2nc(C)c(Cl)c2C)n1	-1.61%
CC12OC1C1(O)CCCC1=CC2=O (stereo not shown)	8.66%
N#Cc1cnn2c(-c3cccc(C(F)(F)F)c3)ccnc12	-52.8%
